Assay results: PMC12040169 (PLOS Biology, 2025)
This is one part of the list.

test system: T1, C. trachomatis L2/434/Bu expressing GFP (CTL2-GFP); design: species or system HeLa; C. trachomatis total inclusion area by high-content imaging, normalised to DMSO; conditions: total inclusion area; 28.5 h, 10 µM; inhibitor
T1 construct: L2/434/Bu GFP intracellular growth in HeLa cells
Summary of the method: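 High-content imaging followed the bulk GFP/resorufin measurement: fixed, Hoechst-stained cells were scored for GFP inclusions and host nuclei per well. Total inclusion area and count served as growth proxies, nuclei number as the viability proxy. MIC calculation matched the bulk assay.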

| Structure (SMILES) | % of control remaining |
| --- | --- |
| O=C(Nc1ccc(S(=O)(=O)Nc2ncccn2)cc1)c1ccc(N2C(=O)c3ccccc3C2=O)cc1 [CBK264868] | 96.192 |
| Cc1ccccc1CNCCNCC(C)O (stereo not drawn) [CBK268718C] | 93.4703 |
| O=C(Nc1ccccc1F)c1cc(Cl)sc1Cl [CBK085969] | 92.5767 |
| Cc1ccc(S(=O)(=O)N2CCC(N3CCN(CCO)CC3)CC2)cc1 [CBK264656G] | 101.776 |
| CNc1c(C)cc([N+](C)(C)C)cc1C [CBK261007I] | 104.048 |
| Cc1c(CNCCN2CCCC2=O)c2ccccc2n1C [CBK281519] | 88.0427 |
| Cc1cc(F)ccc1S(=O)(=O)NCC1CC(=O)Nc2ccccc21 (stereo not drawn) [CBK305210] | 75.1844 |
| CCN1CCCC1CN(Cc1ccccn1)Cc1ccco1 (stereo not drawn) [CBK283161] | 88.8873 |
| O=C(Nc1cc(Cl)cc(Cl)c1)c1csnn1 [CBK057759] | 38.8325 |
| COc1ccc(CN2CC=CC2C(=O)O)cc1Cn1cncn1 (stereo not drawn) [CBK307524] | 88.8654 |
| O=C(COc1ccccc1[N+](=O)[O-])Nc1nc2c(s1)CCC2 [CBK296663] | 95.6304 |
| CC(C)[C@H](NC(=O)Cc1n[nH]c(=O)c2ccccc12)C(=O)O [CBK286607] | 80.5519 |
| O=c1n(Cc2cccnc2)c2cccnc2n1Cc1cccs1 [CBK283903] | 72.0779 |
| O=C(N/N=C\c1cccc2ccccc12)c1ccc(CO)nc1 [CBK261377] | 97.2993 |
| Cc1cccnc1C(NC(=O)C1CCN(Cc2ccoc2)CC1)c1ccc(Cl)cc1 (stereo not drawn) [CBK148227] | 103.411 |
| COC(=O)c1c(NC(=O)CCCC(=O)O)sc2c1CCCCC2 [CBK265393] | 112.451 |
| CC(C)NC(=O)N1CCN(Cc2nc(-c3ccoc3)no2)CC1 [CBK306248] | 37.3485 |
| CC(C)(CN)CN(Cc1ccccc1C(F)(F)F)C(=O)Nc1ccc(Cl)cc1Cl [CBK026832C] | 113.542 |
| O=[N+]([O-])c1ccc2c(c1)C=C1CCCCC1(NCc1ccccc1)O2 (stereo not drawn) [CBK262716] | 89.7641 |
| O=[N+]([O-])c1ccccc1S(=O)(=O)NCCSCc1c(F)cccc1Cl [CBK265259] | 121.632 |
| Cn1nccc1C(=O)C1CCN(C(=O)c2ccccc2F)CC1 [CBK284425] | 81.9762 |
| CCOC(=O)c1c2c([nH]c(=S)c1C#N)CCCC2 [CBK020049] | 121.52 |
| O=C1N/C(=C/c2cccs2)C(=O)N1Cc1ccccc1F [CBK265601] | 111.436 |
| O=C(CSc1ccccc1)Nc1nccs1 [CBK288213] | 107.67 |
| CCN(CC)c1nc2n(c(=O)n1)CCN2CC [CBK027342] | 56.555 |
| CCOC(=O)Nc1ccc2ccccc2n1 [CBK028207] | 33.6955 |
| Cc1ccc(OCCCC(=O)N2CCCc3c(cnn3C)C2)c(C)c1 [CBK285288] | 82.9596 |

| Structure (SMILES) | % of control remaining |
| --- | --- |
| CC(=O)N1CC(C)(C)c2ccccc21 [CBK003715] | 103.33 |
| COc1ccc(-n2nnnc2SCc2ccc(Cl)cc2)cc1 [CBK101068] | 24.8075 |
| O=C1c2ccccc2C(=O)N1CSc1nnc2c3ccccc3n(CCc3ccccc3)c2n1 [CBK263891] | 77.8652 |
| Cc1cc(C)nc(NC(=N)NC2Cc3ccccc3C2)n1 [CBK287863] | 1.854 |
| N#Cc1cccc(S(=O)(=O)Nc2cccc(C(=O)O)c2)c1 [CBK155699] | 68.8996 |
| Cc1ccc(C(C)(C)C(=O)N2CC(C(=O)N3CCN(C)CC3)C2)cc1 [CBK281371] | 105.476 |
| O=C(CSCc1ccc([N+](=O)[O-])cc1)Nc1ccc(O)cc1C(=O)O [CBK131710] | 38.8385 |
| CC(C)N(C(=O)N1CCC(c2cccnc2)CC1)C(C)C [CBK283850] | 95.4272 |
| CC(=O)N1CCN(c2ccccc2NC(=O)c2ccc(OCc3ccccc3)cc2)CC1 [CBK269775] | 95.88 |
| COc1cccc(NC(=O)CN2CCN(c3nc4ccc([N+](=O)[O-])cc4s3)CC2)c1 [CBK264089] | 97.2932 |
| CCC(=O)c1c(-c2ccccc2)nc2n(C)c3ccccc3n12 [CBK262488] | 43.8215 |
| CN(C)CCOC(=O)C1CCCCCN1C (stereo not drawn) [CBK278175G] | 104.346 |
| Cc1nc(N(C)C)ncc1C(=O)NCCSc1nnnn1C [CBK306673] | 96.5259 |
| CN(C)c1ccc([N+](=O)[O-])cc1/C=N/NC(=O)CCc1ccccc1O [CBK263257] | 96.3515 |
| Nc1ncnc2c1nc(Br)n2[C@H]1C[C@@H](O)[C@@H](CO)O1 [CBK201240] | 83.8419 |
| CC(C)Cn1cncc1CNC(=O)Nc1ccc2[nH]nnc2c1 [CBK306549] | 73.2352 |
| O=c1cc(N2CCOCC2)oc2cccc(O)c12 [CBK016536] | 53.685 |
| COc1ccc2c(c1)CCN(C(=O)C1CCc3nn(C)c(=O)n3C1)C2 (stereo not drawn) [CBK307613] | 90.7904 |
| Cc1nc2c(c(=O)[nH]1)CN(Cc1ccc(F)cc1)CC2 [CBK284009] | 90.193 |
| CCN(C)S(=O)(=O)c1ccc(Cl)c(Cl)c1 [CBK045392] | 121.389 |
| O=S(=O)(NCC(c1ccccc1)N1CCNCC1)c1ccccc1 (stereo not drawn) [CBK262813] | 89.8524 |
| O=C(c1cc(CC2(NCc3ccc(F)cc3)COC2)no1)N1CCCCC1 [CBK289657] | 116.696 |
| COc1ccc(OC)c(NC(=O)CSc2nnc(-c3cccnc3)s2)c1 [CBK269043] | 98.6259 |
| CC(C)N1CCC(=NNC(=O)C(O)c2ccccc2)CC1 (stereo not drawn) [CBK019361] | 110.032 |
| Cc1sc(NC(=O)c2ccc(F)cc2Cl)c(C(=O)NCc2cccnc2)c1C [CBK270319] | 98.2867 |
| O=C1NC(=O)C2(CCN(C(=O)c3csc4c3CCCC4)C2)N1 (stereo not drawn) [CBK305533] | 62.281 |
| CCOc1ccc(C(C)(CC(N)=O)C(=O)O)cc1 (stereo not drawn) [CBK286778] | 99.2779 |
